Assay results: the supplement of paper PMC12217912
This is one part of the list. The full chains were built here from the parent and the listed change. Values near 0.05 are background.

B1: TEV protease; numbered along this chain (parent)
chain: MGESLFKGPRDYNPISSSICHLTNESDGHTTSLYGIGFGPFIITNKHLFRRNNGTLVVQSLHGVFKVKDTTTLQQHLVDGRDMIIIRMPKDFPPFPQKLKFREPQREERICLVTTNFQTKSMSSMVSDTSCTFPSGDGIFWKHWIQTKDGQCGSPLVSTRDGFIVGIHSASNFTNTNNYFTSVPKNFMELLTNQEAQQWVSGWRLNADSVLWGGHKVFMVKPEEPFQPVKEATQL

Variants of: B1
Test: raw area under fraction-flipped curve 0-4 h after induction (AUC4h, not background-subtracted), DNA-recorder readout of cleavage of the substrate (dimensionless); higher = more cleavage of the substrate by the protease variant
Conditions: temperature: 34 °C; time window: 0-4 h after rhamnose induction
Experimental: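 In vivo DNA recorder in E. coli TOP10(DE3) ΔrhaA at 34 °C. Each TEVp single-site mutant (parent TEVp 0) is paired with a single-site variant of the 7-mer TEVs (canonical ENLYFQ|S). The substrate sits between flexible linkers in a Bxb1-sfGFP-TEVs-SsrA fusion, so cleavage stabilises Bxb1 and speeds flipping of a recombination array, read by NGS. The value is the raw area under the fraction-flipped curve over 0-4 h after rhamnose induction (AUC4h), with ≥20 reads per time point. It is not background-subtracted; inactive controls average about 0.047.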
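Note: Bxb1 expression induced with 0.2% (w/v) L-rhamnose at OD600 near 0.5, cultures sampled hourly, flipped fraction per protease–substrate barcode pair counted by paired-end Illumina sequencing.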

Variant	area with substrate ENLYFQA	area with substrate ENLYFQG	area with substrate ENLYFQI	area with substrate ENLYFQL	area with substrate ENLYFQM	area with substrate ENLYFQN	area with substrate ENLYFQP	area with substrate ENLYFQQ	area with substrate ENLYFQR	area with substrate ENLYFQS	area with substrate ENLYFQT	area with substrate ENLYFQW	area with substrate ENLYFQY	area with substrate ENLYFQD	area with substrate ENLYFQF	area with substrate ENLYFQH	area with substrate ENLYFQK	area with substrate ENLYFQC	area with substrate ENLYFQV	area with substrate ENLYFQE
F187S	0.0644	0.0799	0.0628	0.056	0.0656	0.0494	0.058	0.0324	0.0546	0.0632	0.0631	0.0563	0.0593							
G2W	0.154			0.0685				0.0826	0.0969	0.13		0.0644	0.0964	0.0517	0.103	0.111	0.0625			
G162Y	0.0986			0.0557	0.0483		0.0506	0.0877	0.0547	0.0819	0.06		0.0684	0.0511		0.0722	0.0604	0.0835	0.0593	
T159H	0.0725	0.145			0.102					0.113		0.0492				0.0487	0.0535	0.115		
K90T	0.101	0.087	0.0877		0.0863	0.0996	0.0545	0.0596		0.101			0.0686		0.0725	0.0831		0.102		
R109N	0.0857		0.0544	0.047		0.0796			0.0589	0.0887	0.0686	0.0345	0.0792				0.0582	0.0962		
I167Q	0.06	0.0785	0.0423				0.0535			0.0779	0.0452				0.134			0.0631		
D149E	0.102	0.0888		0.0657			0.0586	0.0612	0.0498	0.0975	0.0548	0.0649	0.041			0.0602	0.0597	0.105		
V57F	0.068	0.102	0.0499		0.0933	0.0739			0.0682	0.102		0.0601			0.0748	0.1	0.059			
M188G	0.143		0.0491	0.0703	0.0866	0.0822	0.0407	0.0778	0.0055	0.1	0.0785	0.0578					0.0614	0.116		0.0683
D91Y	0.0552	0.0576		0.0804			0.0768		0.0456	0.0977			0.104			0.0743	0.0582	0.119	0.0348	
P9S	0.0962			0.0552		0.063		0.0784	0.0678	0.0983	0.0666	0.064						0.117		
Y34T	0.088	0.0677	0.0677	0.0414				0.0605		0.0752		0.0591	0.0633				0.0628		0.0702	
F6E	0.079			0.041		0.0599		0.074		0.0848			0.0792			0.0813		0.0777		
K221P	0.0783	0.075		0.0594	0.0887	0.085	0.0718		0.049	0.106	0.0517	0.0723		0.061			0.0626	0.099		
